“And” between values parts separate entries of the source, which are not always exact repeats. Equal entries are not always repeated. The shares of active, inactive and inconclusive entries below differ from those in the screen. Where the call is inconclusive, the potency comes from a doubtful curve fit. The source made the active and inactive calls. Calls come from the whole dose curve; as a rule, active = well fitted curve in the direction sought with a large enough effect; inconclusive = small, poorly fitted or top-dose-only effect, or another doubt; inactive = no such curve, though single readings can be large; an effect the other way counts as inactive or inconclusive.
Experiments:
CRL-7250 = normal cell line; test: Cytotoxic Profiling of Annotated Libraries Using Quantitative High-Throughput Screening (AID 1296008); conditions: Five cell lines viability, CellTiter-Glo ATP luminescence, 48-72 h; max response: stronger effect = lower value; note: nearly all actives have a fitted effect of over 60% in size
Outline: (§1)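 Compounds were pin-transferred onto cells and incubated 48 or 72 hr at 37 degree Celsius, 95% humidity. CellTiter-Glo was added, plates sat 10 min at room temperature, then ATP-coupled luminescence was imaged as the viability read-out.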

HEK293 = test: as above; conditions: Five cell lines viability, CellTiter-Glo ATP luminescence, 48-72 h; max response: stronger effect = lower value
Outline: as §1

HaCat = test: as above; conditions: Five cell lines viability, CellTiter-Glo ATP luminescence, 48-72 h; max response: stronger effect = lower value
Outline: as §1

NIH3T3 = test: as above; conditions: Five cell lines viability, CellTiter-Glo ATP luminescence, 48-72 h; max response: stronger effect = lower value
Outline: as §1

Es-2 = test: Primary qHTS to identify gynecologic anti-cancer compounds using libraries of approved drugs and bioactive compounds (AID 1345084); conditions: Gynecologic cancer cell panel viability, ATPlite luminescence, 48 h; series mostly up to 57.5 µM; note: nearly all actives have a fitted effect of over 55% in size
Outline: (§2)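 Luminescence from the ATPlite ATP-monitoring reagent indicates viable cell number; lower signal means cytotoxicity. Cells received compound 16 h after seeding and were exposed for 48 h across five concentrations.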

HeLa = test: as above; conditions: Gynecologic cancer cell panel viability, ATPlite luminescence, 48 h; series mostly up to 57.5 µM
Outline: as §2

OV90 = test: as above; conditions: Gynecologic cancer cell panel viability, ATPlite luminescence, 48 h; series mostly up to 57.5 µM
Outline: as §2

PA-1 = test: as above; conditions: Gynecologic cancer cell panel viability, ATPlite luminescence, 48 h; series mostly up to 57.5 µM
Outline: as §2

SKOV3 = test: as above; conditions: Gynecologic cancer cell panel viability, ATPlite luminescence, 48 h; series mostly up to 57.5 µM
Outline: as §2

Tov-21-G = test: as above; conditions: Gynecologic cancer cell panel viability, ATPlite luminescence, 48 h; activity change, negative = cytotoxicity: at 57.5 µM (top of the series)
Outline: as §2

[1] = P-glycoprotein substrates identified in KB-8-5-11 adenocarcinoma cell line, qHTS therapeutic library screen (AID 1346987); note: nearly all actives have a fitted effect of over 65% in size
Outline: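 KB-8-5-11, a colchicine-selected P-gp-overexpressing KB-3-1 subline, was grown without colchicine for the assay. Cells were seeded at 500 cells/well, dosed in concentration-response and incubated 72 h at 37 degree C, 5% CO2. Viability was read by CellTiter-Glo luminescence.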

[2] = Primary qHTS for inhibitors of nuclear receptor binding SET domain protein 2 (NSD2) in an isogenic RCH-ACV NSD2 p.E1099K mutant (9B) (AID 1645876); note: nearly all actives have a fitted effect of over 70% in size
[3] = Primary qHTS for inhibitors of nuclear receptor binding SET domain protein 2 (NSD2) in an RCH-ACV wild type WT cells (2C) (AID 1645877); conditions: activity change, negative = cell killing: at 44.9 µM (top of the series); note: nearly all actives have a fitted effect of over 70% in size
C33A = test: Primary qHTS to identify gynecologic anti-cancer compounds using libraries of approved drugs and bioactive compounds (AID 1345084); conditions: Gynecologic cancer cell panel viability, ATPlite luminescence, 48 h; series mostly up to 57.5 µM; note: nearly all actives have a fitted effect of over 55% in size
Outline: as §2

JEG-3 = test: as above; conditions: Gynecologic cancer cell panel viability, ATPlite luminescence, 48 h; series mostly up to 57.5 µM
Outline: as §2

Tov112D = test: as above; conditions: Gynecologic cancer cell panel viability, ATPlite luminescence, 48 h; activity change, negative = cytotoxicity: at 57.5 µM (top of the series)
Outline: as §2

CAOV3 = test: as above; conditions: Gynecologic cancer cell panel viability, ATPlite luminescence, 48 h; series mostly up to 57.5 µM
Outline: as §2

CASKI = test: as above; conditions: Gynecologic cancer cell panel viability, ATPlite luminescence, 48 h; activity change, negative = cytotoxicity: at 57.5 µM (top of the series)
Outline: as §2

Hek293T = test: as above; conditions: Gynecologic cancer cell panel viability, ATPlite luminescence, 48 h, control line for the selectivity index; series mostly up to 57.5 µM
Outline: as §2

Measured: Potency
Potency is the fitted concentration of half-maximal effect; tags give direction and shape of the fitted curve.

N#Cc1ccc(-c2cnc3[nH]cc(NC(=O)c4cccnc4)c3c2)cc1
inconclusive: CRL-7250 = 4.11 µM [inhibitor, full curve] | HaCat 6.51 µM [inhibitor, full curve] | NIH3T3 = 25.9 µM [inhibitor, single point] | Es-2 = 25.1 µM [cytotoxic, single point] | HeLa 20 µM [cytotoxic, partial curve] | OV90 = 14.1 µM [cytotoxic, partial curve, poor fit] | PA-1 = 10 µM [cytotoxic, partial curve, poor fit] | SKOV3 = 28.2 µM [cytotoxic, single point] | Tov-21-G 12.6 µM [cytotoxic, partial curve]
active: HEK293 = 8.2 µM

CC(C)(C(=O)NCC(F)(F)C(F)(F)F)C(=O)NC1C(=O)Nc2ccccc2-c2ccccc21 (centres undefined)
active: [1] 4.61 µM | [3] 14.5 µM | HEK293 = 5.8 µM | HaCat 16.4 µM
inconclusive: [2] 23 µM [inhibitor, single point] | CRL-7250 = 20.6 µM [inhibitor, single point] | NIH3T3 = 29.1 µM [inhibitor, single point] | SKOV3 = 1.41 µM [cytotoxic, full curve, poor fit]
inactive: HeLa

CCCCOc1ccc(CC(=O)NO)cc1
inconclusive: [1] 7.85 µM [inhibitor, single point] and 33.2 µM [inhibitor, single point] | CRL-7250 = 26.6 µM [inhibitor, partial curve, poor fit] | HEK293 = 33.2 µM [inhibitor, single point] | HaCat 33.5 µM [inhibitor, single point] and 20.9 µM [inhibitor, single point] | C33A 28.2 µM [cytotoxic, single point] | Es-2 = 1.58 µM [cytotoxic, single point] | JEG-3 = 25.1 µM [cytotoxic, single point] | PA-1 = 12.6 µM [cytotoxic, partial curve, poor fit] | SKOV3 = 28.2 µM [cytotoxic, partial curve, poor fit] | Tov-21-G 39.8 µM [cytotoxic, single point] | Tov112D 11.2 µM [cytotoxic, single point]

c1cc(NC2CCNCC2)nc(-c2cnc3ccccn23)c1
active: HaCat 3.66 µM | NIH3T3 = 5.8 µM | CASKI 10 µM | HeLa 8.91 µM | SKOV3 = 8.91 µM | Tov112D 20 µM
inconclusive: [1] 20.6 µM [inhibitor, single point] | CRL-7250 = 5.8 µM [inhibitor, partial curve, poor fit] | HEK293 = 16.4 µM [inhibitor, single point] | C33A 20 µM [cytotoxic, partial curve, poor fit] | CAOV3 = 8.91 µM [cytotoxic, partial curve] | Hek293T 20 µM [cytotoxic, single point]

COc1cccc(Nc2ncnn3ccc(CN4CC[C@@H](N)[C@H](O)C4)c23)c1
active: [2] 4.68 µM | CRL-7250 = 8.2 µM | HEK293 = 13 µM | HaCat 0.0058 µM | NIH3T3 = 0.517 µM | Tov-21-G 5.62 µM
inconclusive: [1] 18.4 µM [inhibitor, partial curve] | C33A 5.01 µM [cytotoxic, partial curve, poor fit] | CAOV3 = 25.1 µM [cytotoxic, partial curve, poor fit] | Hek293T 39.8 µM [cytotoxic, partial curve, poor fit] | OV90 = 0.355 µM [cytotoxic, full curve, poor fit] | PA-1 = 1.26 µM [cytotoxic, full curve, poor fit] | SKOV3 = 0.251 µM [cytotoxic, full curve, poor fit] | Tov112D 15.8 µM [cytotoxic, partial curve]

O=C(Nc1ccccc1Cl)c1cnc2ccc(C3CCNCC3)cn12
inconclusive: HEK293 = 25.9 µM [inhibitor, single point] | C33A 0.282 µM [cytotoxic, full curve, poor fit] | CAOV3 = 1 µM | CASKI 10 µM [cytotoxic, partial curve, poor fit] | Es-2 = 25.1 µM [cytotoxic, single point] | JEG-3 = 39.8 µM [rising, single point] | SKOV3 = 2.51 µM [cytotoxic, full curve, poor fit]
active: [3] 2.3 µM | CRL-7250 = 1.03 µM | HaCat 1.64 µM | NIH3T3 = 1.46 µM | OV90 = 7.94 µM | PA-1 = 0.891 µM

COc1ccc(CNc2nc(N(CCO)CCO)nc3c2ncn3C(C)C)cc1
active: [1] 5.8 µM | HEK293 = 4.61 µM | Es-2 = 22.4 µM
inconclusive: CRL-7250 = 3.26 µM [inhibitor, full curve, poor fit] | HaCat 29.1 µM [inhibitor, single point] | NIH3T3 = 20.6 µM [inhibitor, single point] | C33A 31.6 µM [cytotoxic, single point] | CASKI 39.8 µM [cytotoxic, single point] | HeLa 28.2 µM [cytotoxic, single point] | Hek293T 31.6 µM [cytotoxic, partial curve, poor fit] | JEG-3 = 17.8 µM [cytotoxic, partial curve, poor fit] | OV90 = 5.62 µM [cytotoxic, single point] | PA-1 = 35.5 µM [cytotoxic, single point] | SKOV3 = 22.4 µM [cytotoxic, single point] | Tov-21-G 20 µM [cytotoxic, partial curve] | Tov112D 22.4 µM [cytotoxic, single point]

CC1CCC2C(=CCC(O)C2(C)C)C1(C)Cc1c(O)cc(CO)c(C=O)c1O (centres undefined)
inactive: HaCat | PA-1
inconclusive: [1] 14.3 µM [inhibitor, single point] | [2] 20.1 µM [inhibitor, single point] | [3] 17.9 µM [inhibitor, single point] | CRL-7250 = 12.8 µM [inhibitor, single point] | HEK293 = 20.2 µM [inhibitor, single point] | NIH3T3 = 11.4 µM [inhibitor, single point]

CN(C/C=C/c1ccccc1)Cc1cccc2ccccc12
inactive: [1]
inconclusive: [2] 26.6 µM [inhibitor, single point] | [3] 29.9 µM [inhibitor, single point] | HEK293 = 16.8 µM [inhibitor, partial curve, poor fit] | NIH3T3 = 33.5 µM [inhibitor, partial curve, poor fit] | Hek293T 35.5 µM [cytotoxic, single point] | SKOV3 = 25.1 µM [rising, single point]
active: CRL-7250 = 26.6 µM | HaCat 21.1 µM

Cc1ccc(-c2c(C(=O)CCl)n(CCCO)c3ncnc(N)c23)cc1
inconclusive: [1] 20.6 µM [inhibitor, single point] | CRL-7250 = 7.31 µM [inhibitor, partial curve] | HEK293 = 18.4 µM [inhibitor, single point] | HaCat 29.1 µM [inhibitor, single point] | NIH3T3 = 20.6 µM [inhibitor, single point] | C33A 5.62 µM [cytotoxic, single point] | CAOV3 = 11.2 µM [cytotoxic, partial curve, poor fit] | Es-2 = 39.8 µM [cytotoxic, partial curve, poor fit]
active: [3] 23 µM

CCCCc1c(-c2ccc(OC)cc2)[nH]c2nccnc12
inconclusive: [1] 29.1 µM [inhibitor, partial curve, poor fit] | [3] 5.15 µM [inhibitor, partial curve] | HEK293 = 25.9 µM [inhibitor, single point] | HaCat 14.6 µM [inhibitor, partial curve] | NIH3T3 = 18.4 µM [inhibitor, partial curve] | C33A 0.251 µM [rising, full curve, poor fit] | SKOV3 = 25.1 µM [rising, single point]
inactive: CRL-7250

— PubChem BioAssay (NCATS)
